# The supplement of paper PMC11417369
# ± gives the standard deviation of the averaged measurements. The list shows a part of the results.
# Test system: PfAP2-EXP AP2 domain (GST-tagged)
# Test: gcPBM binding intensity (ln(normalized median fluorescence intensity)); higher = stronger DNA binding
# In short: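 After 1 h on an Agilent 4 × 180k array of primer-extended double-stranded 36-bp intergenic genomic probes and negative controls, bound GST-tagged P. falciparum DNA-binding domains were detected with Alexa488 anti-GST antibody and scanned at 488 nm. The domains had been expressed in E. coli, and binding took place in 1× PBS with 1% milk, 0.2 mg/ml BSA, 0.5% salmon testes DNA and 0.03% Triton X-100. Binding intensity is the highest Masliner-normalised natural-log median intensity across replicate spots of either probe orientation.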
row,Sequence,gcPBM binding intensity (ln)
1,ATCTTAATTTTTGAAGGTACACACTAATATATTAAA [XGTACX_site2292],8.51 ± 0.42
2,ATATTTTATTATATAGGTACACATAATTTCATGTAA [XGTACX_site415],8.4 ± 0.23
3,AATAAATAAAAATGCACACAGTTAACATGTTGAATT [CACACA_site4795],8.77 ± 0.45
4,TTTTGTACATCTTTTGCACACGTAATGTTATTATAA [CACACA_site1259],8.935 ± 0.035
5,TTTTTTTTTTATTAATGTACAAGATATATAATGTTA [XGTACX_site4809],8.21 ± 0.44
6,TATAATATAAAAATGAGTACATAGATAATAATATTT [XGTACX_site2376],8.66 ± 0.3
7,ATATGGATTATACATACATGCATACATACATACATA [TGCATGCA_site475],8.63 ± 0.17
8,TATATACATATATGCACACAAAAAAATATATATTTT [CACACA_site1729],8.7 ± 0.36
9,TGCAATATATCAAAGTGTACATGCAATAAAAAAAAA [XGTACX_site652],9.21 ± 0.38
10,AATGATACACATATATGTACATATATATATATATAT [XGTACX_site5391],10 ± 0.58
11,AAATGTAGAAAAAGTTGTACACTGTTTCAAAAATAA [XGTACX_site1063],8.55 ± 0.34
12,AAAATTTAATATAATGCACACATAAAACAAAAACAA [CACACA_site8071],9.04 ± 0.33
13,TTTAAAGTTTTATACACACACCAAAGTTATTCTAAT [CACACA_site6432],8.33 ± 0.41
14,CAATGAAAAATAATGAGTACATAGTTAATAAAGATA [XGTACX_site72],8.81 ± 0.43
15,AATTTCTTTTTCGATATACACACTGTATGTGTCTAA [CACACA_site3975],8.62 ± 0.47
16,ATAATTAAAATTAAATGTACTTTTTTATATATTTTT [XGTACX_site2209],8.2 ± 0.3
17,CATAAATAATATATTTGTACGAATAAAATTTGTTCA [XGTACX_site3445],8.2 ± 0.4
18,TAAAACAATATAAAATGTACAGAATTTTTTTTTCTT [XGTACX_site6820],8.02 ± 0.4
19,ATAATGAAAAGAAAGGGTACAAAAAAAAAAAAAAAT [XGTACX_site3350],8.87 ± 0.38
20,TTCTTTTATGATAATTGTACCCTTTTTAAAAAGAAA [XGTACX_site7815],8.69 ± 0.37
21,AACTGATTATTTTTTTGTACATATATAATAATATAT [XGTACX_site5953],8.61 ± 0.33
22,TTTTTTTTCAATGGCACACATTTTAGATTTATGCTT [CACACA_site4735],8.43 ± 0.42
23,ACATGTGAATTTTAGGTGCACTTGTAATTTAACATT,8.805 ± 0.021

row,Sequence,gcPBM binding intensity (ln)
1,TTTTTATTTATTCTCTTTGTATTATAAAATAAAAGC [XGTACX_negctrl_site253],8.4 ± 0.34
2,ATATATATATAATGTTGTACATAAATATTATATTTA [XGTACX_site5225],9.62 ± 0.16
3,GGAAAAATATAATATGCATGTTATTATTTTTTTATA [TGCATGCA_site836],8.32 ± 0.27
4,TATTTATTTATTTAATGTACAAAAGAACAAGAATTT [XGTACX_site2248],8.51 ± 0.52
5,TATGTATATACATAAACATGCAAAAACAATATCTTA [TGCATGCA_site950],8.66 ± 0.35
6,TCTTAATCGTATTATTACTATAATTATATAATATTT [CACACA_negctrl_site1594],8.79 ± 0.75
7,TTCTTCTGTTTTATTACACACCATTTTGTGTATACA [CACACA_site7059],8.96 ± 0.35
8,CAAAAAGGAATGTATGCACACAATTGATTTTAACTC [CACACA_site1468],8.7 ± 0.38
9,AACGATATATGTACTACACACATTATGTCATCCTAT [CACACA_site2464],8.76 ± 0.28
10,ATATATATATTATATAGTACAGAGTATACTATTATA [XGTACX_site1893],8.925 ± 0.021
11,ACAAAAGGGGAATACACACACATATATATATATATA [CACACA_site2215],10.2 ± 0.52
12,GATCTAAAAACAAGGTGTACAAGAAAAAAAAAAAAA [XGTACX_site7577],8.47 ± 0.5
13,AGTTATATGTACTACACACGTACACAAAATAAGATA [CACACA_site3719],8.88 ± 0.18
14,CTTAATTTTTTTTAATGTACATACATATAAACCTTT [XGTACX_site2233],8.62 ± 0.45
15,TATTCTTTTATGAATACACACATATACGAAAATATT [CACACA_site6585],8.41 ± 0.45
16,AAGGAGAAATATTGCACACGTGCAAAATGGTATGAG [CACACA_site259],9.2 ± 0.13
17,AAAATTAAAAATAACACACACATATTTATATTTATA [CACACA_site7329],8.12 ± 0.39
18,AAATGTTAAAAAGAGAAAAACAATAAAAAACAATTA [CACACA_negctrl_site1044],8.64 ± 0.39
19,AAAAGGTTATCAAAATGTACGAAATGTTACAAAAAT [XGTACX_site6215],8.66 ± 0.47
20,AGGTGTCATAGATGCACACAAAAGTAACACGCACCT [CACACA_site4418],8.54 ± 0.3
21,ATAACCTAATAATACACACACATGAATATAAATAAC [CACACA_site6584],8.79 ± 0.39
22,ATATATATTTTATACGCATGTAATTATTATGTGGTC [TGCATGCA_site45],8.68 ± 0.3
23,AAACAATTTGGGTGTACACATGATACGTTCGATGAG [CACACA_site5160],9.03 ± 0.35

row,Sequence,gcPBM binding intensity (ln)
1,ATATTATACATTTATACACACATAAAAAGACAAAAA [CACACA_site3565],8.77 ± 0.45
2,TGTAATATTTTTCATGCATGCTCTTCTTTTACATAA [TGCATGCA_site144],9.35 ± 0.35
3,ATAATTTATATTACTTGTACATATTTATATGAACGA [XGTACX_site3610],8.18 ± 0.23
4,TATATTAAACAATATACACACATTAATGTATCCATA [CACACA_site5523],8.4 ± 0.38
5,TTATATATATATATATGTACACATATATAACATGAT [XGTACX_site6643],8.67 ± 0.18
6,ACATGTAAATTTACATGTACATGTAACACTTAATAT [XGTACX_site4575],8.96 ± 0.32
7,AAAACAAACGGACACACACACATATATATATATATA [CACACA_site5924],10.1 ± 0.32
8,TACATATTTACTATCACACACACGATATATATAAAT [CACACA_site1242],8.74 ± 0.36
9,TACTTAAAAAAAAAAAAAATAAATATTATGTATTAT [CACACA_negctrl_site138],8 ± 0.43
10,ATACGAAAAAATAGACGTACTATGAAATAATAATTT [XGTACX_site8387],8.78 ± 0.44
11,TTTAGTGAGTTTGTTGTGCACTGAAAAAATTACAAT,9.07 ± 0.11
12,TAATATTTTAATTGTGTGCACATTAATATTATAAAA,8.575 ± 0.035
13,TATATTATTTTTTGTGGTACATGTATTTTTACCTAA [XGTACX_site4348],8.94 ± 0.37
14,GTACATTATATATATACACACATACATAATAAAGAA [CACACA_site5528],8.6 ± 0.47
15,ATATGCTATTAATTATGTACATATATATATATATAT [XGTACX_site4901],10.1 ± 0.25
16,ACTACGTGTCAAAAATATTAATTACAAATGAATAAA [GTGCAC_negctrl_site248],8.04 ± 0.29
17,GGACTATACAGTTATACACACACATATATATATAAT [CACACA_site7991],8.74 ± 0.51
18,CGAAAGGAAATATAACGTACATAAGATTATATTCAC [XGTACX_site3868],8.64 ± 0.45
19,AATAAATAAATATATTGTACATATATATATATATAT [XGTACX_site8627],10.2 ± 0.4
20,ATGCATACACTTATATGTACACATTTACATATTATT [XGTACX_site2841],8.82 ± 0.34
21,TATTAAAAGAAAAAAAAAAAAAAATTAATACATATA [XGTACX_negctrl_site582],8.18 ± 0.54
22,ATGAACAAGGGGCACACACACATTATGACTAATTTA [CACACA_site3204],8.72 ± 0.5
23,TATTAATATATAGTAGTGCAATAAAGATATACTGAA,8.85 ± 0.14

row,Sequence,gcPBM binding intensity (ln)
1,AACATACTCACGAACATACACACGGACATACATACG [CACACA_site603],8.99 ± 0.57
2,ATCATTTTTATAAATTGTACAAATATTTTTTATACA [XGTACX_site7551],8.6 ± 0.33
3,ATTTCGTAATTTATATCACACACATATATATATAAT [CACACA_site9021],8.89 ± 0.52
4,CATATTATTTATATTTGTACACAGCGATATGAAATA [XGTACX_site7717],8.73 ± 0.39
5,TATATATATATATATGTGCACATATATATGATATTA,10.1 ± 0.34
6,CTTACATAAAATATCACACACATAAAAAAACAATAT [CACACA_site1901],8.87 ± 0.39
7,CACCAATTCATATGCACACACATCTGCATATTATAG [CACACA_site6925],8.8 ± 0.15
8,ATATCGCACGTTTGAAGTACATAAAAACGATTAATA [XGTACX_site7684],8.66 ± 0.34
9,TTATATAAATATAAGGTGCTGGGGTTTATTACATAT [GTGCAC_site9909],9.03 ± 0.54
10,TTTTTTAAAATATAAAATATGTACAAATATGTTGAA [GTGCAC_negctrl_site379],8.56 ± 0.33
11,TATAAAATATAAATTTGTACATATAAAATATTTTAT [XGTACX_site7462],8.45 ± 0.33
12,TAATAGTTATAAAATACACACCAGGCATGATAAATG [CACACA_site4335],8.5 ± 0.41
13,AATATTTTAAAAAAATGTACTTTTAACCCTTATTGG [XGTACX_site3490],8.12 ± 0.33
14,ATATATGGGTAGTATACACACTGTATATTTAGGAAT [CACACA_site7357],8.83 ± 0.35
15,GTATGAAAAAAATATGCATGCTAAATAATAAATGTT [TGCATGCA_site352],9.35 ± 0.4
16,TATATATATATACATACATATAAAGTTACATAAACA [CACACA_negctrl_site432],10 ± 0.18
17,TAGATTTTTTTACATTGTACATATTTTTTCTTATAG [XGTACX_site293],8.7 ± 0.46
18,GAACAAACAAAGAAAGAACACACATACACAATATAC [CACACA_site8918],9.06 ± 0.36
19,AATACATACATATATACATGCATACATATAAATATA [TGCATGCA_site674],8.64 ± 0.35
20,ATGATTTATTATTATACACACAAAAAAAAAAAAGGA [CACACA_site264],8.49 ± 0.47
21,GAACAAAAAAAAAATTGTACACAATTTTTTAAAATT [XGTACX_site4455],8.3 ± 0.39
